Where “and” joins values, the source holds several entries; their conditions need not be identical. Equal entries are not always repeated. The shares of active, inactive and inconclusive entries below differ from those in the screen. Where the call is inconclusive, the potency comes from a doubtful curve fit. Some structures have more than one record in an assay (separate samples or runs), and their calls can disagree. Calls of active or inactive are those of the source. Calls follow the shape of the dose curve; as a rule, active = well fitted curve in the direction sought with a large enough effect in the repeat runs; inconclusive = weak or mixed curves; inactive = no such curve, though single readings can be large; an effect the other way counts as inactive or inconclusive.
Experiments:
[1] = qHTS RealTime-Glo MT Cell Viability Assay in HEK293 cells - 16 hour (AID 1224872); also: nearly all actives have a fitted effect of over 50% in size
Method in brief: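 Cells + reagent dispensed (600 cells/well, HEK293) → 5 h at 37 C/5% CO2 → 23 nL compound in DMSO pinned → 40 h at 37 C → luminescence read at 0, 8, 16, 24, 32, 40 h.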

[2] = qHTS RealTime-Glo MT Cell Viability Assay in HEK293 cells - 40 hour (AID 1224874); conditions: RealTime-Glo luminescence; max response: stronger effect = lower value; also: nearly all actives have a fitted effect of over 50% in size; as to max response: % is scaled to controls: 0 for no effect and ±100 for the full control effect
Method in brief: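 Luminescence readout at each listed time point; HEK293, 600 cells/well, RealTime-Glo MT reagent added with cells; compounds pinned (23 nL in DMSO) after 5 h at 37 C; continuous culture at 37 C.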

[3] = A CellTox Green Cytotoxicity Assay to monitor cytotoxicity in HEK293 cells - 24 hour (AID 1224875); also: nearly all actives have a fitted effect of over 45% in size
Method in brief: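 Read-out: fluorescence of a cell-impermeant cyanine dye staining DNA of dead cells, proportional to cytotoxicity. HEK293, 600 cells/well with reagent, compound (23 nL DMSO) added after 5 h; reads at 0, 8, 16, 24, 32, 40 h.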

[4] = A CellTox Green Cytotoxicity Assay to monitor cytotoxicity in HepG2 cells - 24 hour (AID 1224878); also: nearly all actives have a fitted effect of over 45% in size; as to Cytotoxicity: % is scaled to controls: 0 for no effect and ±100 for the full control effect
Method in brief: (§1)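 HepG2, 600 cells/well premixed w/ CellTox Green; 5 h settle, 37 C/5% CO2; pintool cpd add (DMSO); 37 C, 40 h; fluorescence read at 0, 8, 16, 24, 32, 40 h.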

[5] = A CellTox Green Cytotoxicity Assay to monitor cytotoxicity in HepG2 cells - 40 hour (AID 1224879); also: nearly all actives have a fitted effect of over 40% in size
Method in brief: as §1

[6] = A CellTox Green Cytotoxicity Assay to monitor cytotoxicity in HepG2 cells - 16 hour (AID 1224876); also: nearly all actives have a fitted effect of over 45% in size
Method in brief: as §1

[7] = qHTS RealTime-Glo MT Cell Viability Assay in HepG2 cells - 32 hour (AID 1224877); also: nearly all actives have a fitted effect of over 55% in size
Method in brief: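 Real-time, nonlytic viability: 600 HepG2 cells/well mixed with NanoLuc enzyme plus prosubstrate; 5 h settle, compound (DMSO) added by pintool; luminescence monitored over 40 h at 37 C.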
Potency is read from the fitted curve at half-maximal effect; tags tell the direction and shape of the fitted curve.

Structure (SMILES): CCOc1ccc(NS(=O)(=O)c2ccc(N)cc2)nn1
- Potency [1]: inconclusive: 0.0849 µM [cytotoxic, single point]
- Potency [2]: inconclusive: 0.0756 µM [cytotoxic, partial curve, poor fit]

Structure (SMILES): NC(N)=NS(=O)(=O)c1ccc(N)cc1
- Potency [1]: inactive
- max response [2]: inactive: -4.08%

Structure (SMILES): OCc1c2ccccc2cc2ccccc12
- Potency [1]: inconclusive: 55.1 µM [cytotoxic, single point]
- Potency [2]: inconclusive: 55.1 µM [cytotoxic, single point]

Structure (SMILES): O=P(OC(CCl)CCl)(OC(CCl)CCl)OC(CCl)CCl
- Potency [1]: inconclusive: 43.4 µM [cytotoxic, partial curve] and inconclusive: 49 µM [cytotoxic, partial curve]
- Potency [2]: active: 21.8 µM and active: 49 µM

Structure (SMILES): CCCCOCC
- Potency [1]: inconclusive: 61.6 µM [rising, single point]
- Potency [2]: inconclusive: 54.9 µM [rising, single point]

Structure (SMILES): Cc1ccc(/C(=C\CN2CCCC2)c2ccccn2)cc1
- Potency [1]: inconclusive: 23 µM [cytotoxic, partial curve]
- Potency [2]: inconclusive: 23 µM [cytotoxic, partial curve]

Structure (SMILES): O=C(C1CCCCC1)N1CC(=O)N2CCc3ccccc3C2C1 (stereo unspecified)
- Potency [1]: inconclusive: 54.8 µM [cytotoxic, single point] and inconclusive: 43.6 µM [cytotoxic, partial curve, poor fit]
- Potency [2]: inconclusive: 54.8 µM [cytotoxic, partial curve, poor fit] and inconclusive: 27.5 µM [cytotoxic, partial curve]

Structure (SMILES): C[C@]12CCC(=O)C=C1[C@@H]1C[C@@H]1[C@H]1[C@@H]3[C@@H]4C[C@@H]4[C@@]4(CCC(=O)O4)[C@@]3(C)CC[C@@H]12
- Potency [1]: inconclusive: 21.3 µM [cytotoxic, partial curve, poor fit]
- Potency [2]: inconclusive: 26.8 µM [cytotoxic, partial curve]

Structure (SMILES): COc1cc2nc(Cl)nc(N)c2cc1OC
- Potency [1]: inconclusive: 10.7 µM [cytotoxic, single point]
- Potency [2]: inconclusive: 10.7 µM [cytotoxic, single point]
- Potency [3]: inactive

Structure (SMILES): CC(C)(O)c1ccc(CNC(=O)c2cccnc2Oc2ccc(F)cc2)cc1
- Potency [1]: inconclusive: 13.8 µM [cytotoxic, partial curve, poor fit]
- Potency [2]: inconclusive: 21.9 µM [cytotoxic, partial curve]

Structure (SMILES): O=C(OCCCCCOC(=O)c1ccccc1)c1ccccc1
- Potency [1]: inconclusive: 24.5 µM [cytotoxic, partial curve]
- Potency [2]: inconclusive: 49 µM [cytotoxic, partial curve]

Structure (SMILES): CCCCCCOc1ccc(N)cc1
- Potency [1]: inconclusive: 38.9 µM [cytotoxic, partial curve]
- Potency [2]: inconclusive: 49 µM [cytotoxic, partial curve]
- Potency [3]: active: 49 µM
- Potency [4]: inconclusive: 34.7 µM [activator, partial curve]
- Potency [5]: inconclusive: 34.7 µM [activator, partial curve]

Structure (SMILES): CCCNCC(O)COc1ccccc1C(=O)CCc1ccccc1 (stereo unspecified)
- Potency [1]: active: 2.13 µM
- Potency [2]: active: 2.39 µM
- Potency [6]: inconclusive: 26.8 µM [activator, single point]
- Potency [4]: inconclusive: 26.8 µM [activator, single point]
- Potency [5]: inconclusive: 26.8 µM [activator, single point]

Structure (SMILES): O=C(Nc1ccc2c(c1)Cc1ccccc1-2)C(F)(F)F
- Potency [1]: inconclusive: 49 µM [cytotoxic, partial curve]
- Potency [2]: inconclusive: 49 µM [cytotoxic, partial curve, poor fit]

Structure (SMILES): CCCCC(CC)COC(=O)CS (stereo unspecified)
- Potency [1]: inconclusive: 17.4 µM [cytotoxic, partial curve]
- Potency [2]: active: 19.5 µM
- Potency [6]: inactive and inconclusive: 61.6 µM [activator, partial curve, poor fit]
- Potency [4]: inconclusive: 61.6 µM [activator, partial curve, poor fit]
- Potency [5]: inconclusive: 61.6 µM [activator, partial curve, poor fit]

Structure (SMILES): CC(C)CC(=O)CC(C)CC(C)C (stereo unspecified)
- Potency [1]: inconclusive: 24.5 µM [cytotoxic, partial curve]
- Potency [2]: active: 15.5 µM
- max response [2]: inactive: 0.688%
- Potency [6]: inconclusive: 24.5 µM [activator, full curve, poor fit]
- Potency [4]: inconclusive: 21.9 µM [activator, full curve, poor fit]
- Potency [5]: inconclusive: 21.9 µM [activator, full curve, poor fit]

Structure (SMILES): Cc1ncc([N+](=O)[O-])n1CCO
- Potency [1]: inconclusive: 54.9 µM [rising, partial curve]
- max response [2]: inactive: 2.44% and inactive: 13.2% and inactive: 5.09%

Structure (SMILES): CCCCOC(=O)c1ccc(N)cc1
- Potency [1]: inconclusive: 21.3 µM [cytotoxic, partial curve, poor fit]
- Potency [2]: inconclusive: 16.9 µM [cytotoxic, partial curve]
- Potency [6]: inconclusive: 26.8 µM [activator, single point]
- Potency [4]: inconclusive: 26.8 µM [activator, single point]

Structure (SMILES): O=C(O)c1ccc(S(=O)(=O)O)cc1C(=O)O
- Potency [1]: inconclusive: 61.8 µM [cytotoxic, single point]
- Potency [2]: inconclusive: 55.1 µM [cytotoxic, single point]

Structure (SMILES): CCCOC(C(=O)OC1CCN(C)CC1)(c1ccccc1)c1ccccc1
- Potency [1]: inconclusive: 19 µM [cytotoxic, partial curve, poor fit]
- Potency [2]: inconclusive: 19 µM [cytotoxic, partial curve]
- Potency [3]: inconclusive: 26.8 µM [activator, single point]

Structure (SMILES): CC(=O)c1ccccc1N
- Potency [1]: inconclusive: 61.6 µM [cytotoxic, single point]
- Potency [2]: inconclusive: 61.6 µM [cytotoxic, single point]

Structure (SMILES): CC(C)=CCC/C(C)=C/CC/C(C)=C/CO
- Potency [1]: inconclusive: 54.9 µM [cytotoxic, partial curve, poor fit]
- Potency [2]: inconclusive: 49 µM [cytotoxic, partial curve, poor fit]
- Potency [3]: inconclusive: 54.9 µM [activator, single point]
- Potency [4]: inactive
- Potency [5]: inconclusive: 54.9 µM [activator, single point]

Structure (SMILES): COc1c2occc2cc2ccc(=O)oc12
- Potency [1]: inconclusive: 21.9 µM [cytotoxic, single point]
- Potency [2]: inconclusive: 23.9 µM [cytotoxic, partial curve, poor fit]
- Potency [6]: inconclusive: 10.7 µM [activator, single point]
- Potency [4]: inconclusive: 10.7 µM [activator, single point]

Structure (SMILES): Cc1cccc(C)c1NC(=O)CN(CC(=O)O)CC(=O)O
- Potency [1]: inactive
- max response [2]: inactive: 5.56%

Structure (SMILES): CCCCCC/C=C/C=O
- Potency [1]: inconclusive: 0.123 µM [rising, full curve]
- Potency [6]: inactive
- Potency [4]: inconclusive: 19.5 µM [activator, partial curve, poor fit]
- Potency [5]: inconclusive: 21.9 µM [activator, partial curve, poor fit]

Structure (SMILES): CN(C)CCOC(c1ccccc1)c1ccccc1
- Potency [1]: inactive
- Potency [3]: inactive
- Potency [4]: inactive

Structure (SMILES): CCc1c(C(=O)O)c(=O)cnn1-c1ccc(Cl)cc1
- Potency [1]: inactive
- Potency [6]: inactive

Structure (SMILES): O=C(Nc1ccc([N+](=O)[O-])cc1)Nc1ccc([N+](=O)[O-])cc1
- Potency [1]: inconclusive: 9.52 µM [cytotoxic, full curve]
- Potency [7]: inconclusive: 9.52 µM [cytotoxic, partial curve, poor fit]
- Potency [4]: inconclusive: 26.8 µM [activator, single point]

Structure (SMILES): CN1CCN(C2=Nc3ccccc3Oc3ccc(Cl)cc32)CC1
- Potency [1]: inactive
- Potency [4]: inconclusive: 19 µM [activator, partial curve, poor fit]

Structure (SMILES): Oc1ccc(C2(c3ccc(O)c(C4CCCCC4)c3)CCCCC2)cc1C1CCCCC1
- Potency [1]: active: 43.6 µM
- Potency [7]: active: 34.7 µM
- Potency [4]: active: 34.7 µM
- Potency [5]: active: 24.5 µM

Structure (SMILES): CCCCCCCCSCC
- Potency [1]: inactive
- Potency [3]: inconclusive: 2.19 µM [activator, single point]

Structure (SMILES): CC(C)(C)[C@@H](O)[C@@H](Cc1ccc(Cl)cc1)n1cncn1
- Potency [1]: inconclusive: 61.2 µM [cytotoxic, single point]
- Potency [2]: inconclusive: 54.6 µM [cytotoxic, single point] and inconclusive: 54.9 µM [cytotoxic, partial curve, poor fit]
- Potency [5]: inconclusive: 48.9 µM [activator, single point]

Structure (SMILES): c1ccc(C(O[C@H]2CCCN(CCc3ccc4c(c3)OCO4)C2)c2ccccc2)cc1
- Potency [1]: inconclusive: 13.4 µM [cytotoxic, partial curve, poor fit]
- Potency [6]: inconclusive: 26.8 µM [activator, single point]
- Potency [4]: inconclusive: 26.8 µM [activator, single point]
- Potency [5]: inconclusive: 26.8 µM [activator, single point]

Structure (SMILES): COc1ccc(OC)c(N=Nc2c(O)ccc3ccccc23)c1
- Potency [1]: inconclusive: 24.5 µM [cytotoxic, partial curve]
- Potency [2]: inconclusive: 34.7 µM [cytotoxic, partial curve]
- Potency [6]: inactive
- Potency [5]: inconclusive: 54.9 µM [activator, single point]

From PubChem BioAssay (Tox21)
